Screen size: about 110,000 compounds; about 230 (0.21%) showed an effect of 50% or more. The list shows a part of the results.
Target: DPAP1 (Plasmodium falciparum, UniProt Q8IIJ9)
Assay: primary screen, percent inhibition; read by cleavage of a fluorogenic dipeptide substrate; higher = more effect of the substance
Parameters: species or system P. falciparum D10 trophozoite lysates; single well
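Note: 30 min substrate incubation versus DMSO and 10 µM JCP410 controls.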

Chain of DPAP1 (Q8IIJ9 whole entry, looked up): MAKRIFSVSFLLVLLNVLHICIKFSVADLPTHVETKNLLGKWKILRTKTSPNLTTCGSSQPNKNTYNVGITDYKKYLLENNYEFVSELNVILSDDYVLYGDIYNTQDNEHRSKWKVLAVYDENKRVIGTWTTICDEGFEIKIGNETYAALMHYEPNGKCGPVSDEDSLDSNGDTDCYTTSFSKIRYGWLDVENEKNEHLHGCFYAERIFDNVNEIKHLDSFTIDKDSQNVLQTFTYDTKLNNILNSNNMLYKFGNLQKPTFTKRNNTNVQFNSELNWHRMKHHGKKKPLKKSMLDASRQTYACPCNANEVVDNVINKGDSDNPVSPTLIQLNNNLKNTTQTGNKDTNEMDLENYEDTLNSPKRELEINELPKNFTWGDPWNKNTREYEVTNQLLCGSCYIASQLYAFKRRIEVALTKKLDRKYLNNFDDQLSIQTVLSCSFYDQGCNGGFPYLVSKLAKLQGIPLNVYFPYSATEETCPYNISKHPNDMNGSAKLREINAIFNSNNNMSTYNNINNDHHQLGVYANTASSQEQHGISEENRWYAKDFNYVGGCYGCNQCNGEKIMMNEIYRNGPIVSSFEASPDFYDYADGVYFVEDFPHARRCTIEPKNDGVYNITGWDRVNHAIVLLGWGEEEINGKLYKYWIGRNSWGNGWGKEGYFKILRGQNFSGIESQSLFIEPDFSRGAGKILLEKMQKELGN

SMILES	% Inhibition @ 10 uM [%]
O=c1c2cnn(-c3ccccc3)c2ncn1Cc1c(F)cccc1Cl	-3.75
COC(=O)c1cccc(S(=O)(=O)N2CCCCC2)c1	-0.856
CCOC(=O)c1ccc2c(c1)sc1nc(-c3ccccc3)cn12	3.39
COc1ccc(C(=O)N2CCN(c3ccc(N4CCOCC4)nn3)CC2)cc1	-3.45
CC(Cc1c[nH]c2ccccc12)N1C(=O)CCC1=O (centres unmarked)	5.02
CCc1c(C(=O)N2N=C(C(F)F)CC2(O)C(F)F)csc1C (centres unmarked)	-1.63
COc1ccc(N2C(=O)CC(NC3CCN(Cc4ccccc4)CC3)C2=O)cc1 (centres unmarked)	5.97
CCCCNC(=O)c1c(Cl)nc(C)c(Cl)c1C	2.8
CCCC(=O)Nc1nnc(S(=O)(=O)N(CC)CC)s1	0.00665
CCOc1ccc(Oc2nc(N(C)C)nc(N3CCCC3)n2)nn1	2.05
COc1ccc2[nH]c3c(=O)n(CCCCCC(=O)NCCCN4CCCCC4)c(=S)[nH]c3c2c1	30.2
NC(=O)C1CCN(S(=O)(=O)c2ccc3nc(O)ccc3c2)CC1	-2.7
COc1ccc(CC(=O)Nc2cccc3c2CCCC3)cc1	3.74
CNc1ccc(Nc2ccc(C)cc2)c2c1C(=O)c1ccccc1C2=O	-2
O=C(C1CCCCC1)N1CC(=O)N(CCc2ccccc2)C(=O)C1	-1.69
CN(C(=O)COCc1cc(-c2ccc(F)cc2)on1)C1CCCCC1	5.05
Cn1c(=O)c2ncn(CC(=O)Nc3ccccc3C(F)(F)F)c2n(C)c1=O	-11.7
Cc1ccccc1CSCc1ccc(C(=O)NCc2cccnc2)o1	1.62
Cc1c(Br)c(C(F)(F)F)nn1CC(=O)NCc1ccccc1	2.65
O=C(Nc1ccc(Cl)nc1)c1ccc(Oc2ccccc2)cc1	-4.49
O=C(COc1ccc(Br)cc1)N1CCN(c2ccccc2F)CC1	-11.1
COc1ccc(N(CC(=O)Nc2ccc(C)c(Cl)c2)S(C)(=O)=O)c(OC)c1	-5.67
CC(C)NC(=O)CCCc1cn(Cc2ccc(F)cc2)c2ccccc12	-0.0401
N#CC1=C(N)Oc2[nH]nc(-c3ccccc3Cl)c2C1c1ccc(F)cc1 (centres unmarked)	1.03
COC(=O)c1cc2c(=O)n3cccc(C)c3nc2n(C2CCCCC2)c1=N	0.279

SMILES	% Inhibition @ 10 uM [%]
Cc1ccc(-c2[nH]nc3c2C(c2ccc(N4CCOCC4)cc2)C(C#N)=C(N)O3)cc1 (centres unmarked)	-2.83
CC1=C(C(=O)OCC2CCCCC2)C(c2ccc(Cl)cc2Cl)NC(=O)N1 (centres unmarked)	2.92
C=CCN(CC=C)Cc1c(O)ccc2oc(C)c(C(=O)NC3CCCCC3)c12	2.14
CCOC(=O)c1c(NC(=O)CN(CC)CC)sc2c1CCCC2	-1.29
CCCCNC(=O)Cn1nc(-c2ccccc2)ccc1=O	-3.22
CC1CC(C)CN(C(=O)CN2N=C(c3ccccc3)CCC2=O)C1 (centres unmarked)	5.35
CN1C(=O)/C(=C\c2ccc(C(=O)O)cc2)S/C1=N\c1ccccc1	4.96
CC(=O)Nc1ccc(N2C(=O)C3C4c5ccccc5C(c5ccccc54)C3C2=O)cc1 (centres unmarked)	-4.96
CCCCNC(=O)CNC(=S)N(Cc1cc(OC)c(OC)c(OC)c1)C1CCCC1	-0.406
Cc1cc(C)c(S(=O)(=O)NCC(=O)Nc2ccc(C)c(C)c2)c(C)c1	-4.82
CSc1nncn1-c1ccccc1	2.7
CC(=O)N1c2ccccc2N=C2CC(C)(C)CC(O)=C2C1c1ccc(OC(C)C)cc1 (centres unmarked)	5.24
CCS(=O)(=O)c1nc(S(=O)(=O)c2ccc(Cl)cc2)c(NCC(C)C)s1	-2.25
COc1ccc(NC(=O)C(C)Oc2ccccc2)cc1 (centres unmarked)	0.843
CC1CCCC(C)N1C(=O)c1cnn2c(C(F)(F)F)cc(-c3cccs3)nc12 (centres unmarked)	-2.8
Cc1nn(C(=O)CCCCCNC(=O)c2ccccc2)c(C)c1Cl	1.91
Cc1ccccc1S(=O)Cc1ccc(C(=O)NCCc2ccc(Cl)cc2)o1 (centres unmarked)	-1.28
CCN(CC)CC(O)Cn1c2ccc(Cl)cc2c2cc(Cl)ccc21 (centres unmarked)	1.44
COc1ccc(C(=O)/C=C2/Sc3cc4c(cc3N2C)OCO4)cc1	-1.32
COc1ccc(CNC(=O)C(C)Oc2cccc(Cl)c2)cc1 (centres unmarked)	-0.992
CC(=O)Nc1ccc(S(=O)(=O)Nc2ccc(S(=O)(=O)N3CCOCC3)cc2)cc1	-1.57
CC[C@H](NC(=O)[C@@H](C[C@H](C)c1ccccc1)NC(=O)c1ccc(-c2ccccc2Cl)cc1)C(=O)c1nc2ccccc2o1	2.87
COc1ccc(Br)cc1CNC(=O)C1CCCN(c2nc3ccccc3n3cccc23)C1 (centres unmarked)	0.0845
CCCNC(=O)Cn1c(=O)cc(C)c2c(C)nn(-c3ccc(CC)cc3)c21	7.35
COc1cccc(OCCN2CCNCC2)c1	-0.473
